This note sets out measurements from paper PMC4294773.

Chains of the proteins cited; added tags and fusions are not shown. Lines headed by an entry give the natural chain unless they say otherwise; changes in a name come on top. A line that says so, or that is headed by a name, gives the form on record, which may keep a tag or linker. Residues count along the entry.
UniProt O43516: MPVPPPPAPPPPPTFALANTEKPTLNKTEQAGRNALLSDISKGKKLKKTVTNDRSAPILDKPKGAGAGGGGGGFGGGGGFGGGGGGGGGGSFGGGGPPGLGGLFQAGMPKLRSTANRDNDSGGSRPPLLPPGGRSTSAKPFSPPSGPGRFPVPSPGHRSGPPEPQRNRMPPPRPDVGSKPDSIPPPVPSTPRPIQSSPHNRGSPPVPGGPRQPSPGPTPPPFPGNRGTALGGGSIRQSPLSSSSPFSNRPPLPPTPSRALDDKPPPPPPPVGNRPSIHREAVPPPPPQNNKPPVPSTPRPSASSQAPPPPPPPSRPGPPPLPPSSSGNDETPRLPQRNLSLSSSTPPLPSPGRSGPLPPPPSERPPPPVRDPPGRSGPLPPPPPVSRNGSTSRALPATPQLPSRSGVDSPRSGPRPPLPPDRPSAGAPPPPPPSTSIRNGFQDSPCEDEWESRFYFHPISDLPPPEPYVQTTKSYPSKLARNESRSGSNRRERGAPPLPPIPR
WIP(ΔWBD)–EGFP: residues 1-449 of O43516
WIP(Y455/468/475F)–EGFP^RES (O43516, form named): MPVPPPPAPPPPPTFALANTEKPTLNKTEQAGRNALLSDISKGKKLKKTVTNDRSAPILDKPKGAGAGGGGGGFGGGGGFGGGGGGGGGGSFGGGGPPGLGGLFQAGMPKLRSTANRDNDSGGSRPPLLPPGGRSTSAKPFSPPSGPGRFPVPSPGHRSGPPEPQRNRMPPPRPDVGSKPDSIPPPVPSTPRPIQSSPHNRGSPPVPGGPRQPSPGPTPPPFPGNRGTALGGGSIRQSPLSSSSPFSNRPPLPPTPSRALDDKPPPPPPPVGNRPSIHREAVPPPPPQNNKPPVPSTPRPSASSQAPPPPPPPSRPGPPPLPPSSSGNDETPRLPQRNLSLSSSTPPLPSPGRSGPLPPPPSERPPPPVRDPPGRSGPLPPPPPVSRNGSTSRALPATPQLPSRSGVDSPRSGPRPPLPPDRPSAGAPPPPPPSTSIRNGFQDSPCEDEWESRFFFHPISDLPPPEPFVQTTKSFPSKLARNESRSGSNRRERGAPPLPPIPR
WIP–EGFP, unphosphorylatable variant of S488 (serine to alanine) (O43516, form named): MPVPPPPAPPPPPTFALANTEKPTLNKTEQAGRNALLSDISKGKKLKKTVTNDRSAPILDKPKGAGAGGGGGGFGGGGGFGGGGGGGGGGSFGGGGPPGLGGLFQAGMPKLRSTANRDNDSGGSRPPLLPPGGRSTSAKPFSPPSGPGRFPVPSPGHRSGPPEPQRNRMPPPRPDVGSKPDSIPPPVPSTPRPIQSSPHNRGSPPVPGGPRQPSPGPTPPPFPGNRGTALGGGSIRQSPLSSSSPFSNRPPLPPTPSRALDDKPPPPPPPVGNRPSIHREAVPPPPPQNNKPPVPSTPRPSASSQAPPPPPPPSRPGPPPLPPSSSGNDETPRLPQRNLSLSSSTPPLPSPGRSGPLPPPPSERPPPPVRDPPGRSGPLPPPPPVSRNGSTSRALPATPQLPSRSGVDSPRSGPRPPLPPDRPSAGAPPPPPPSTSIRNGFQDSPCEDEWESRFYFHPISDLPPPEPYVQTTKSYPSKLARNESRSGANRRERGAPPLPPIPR
WIP–EGFP, phosphomimetic variant of S488 (serine to aspartic acid) (O43516, form named): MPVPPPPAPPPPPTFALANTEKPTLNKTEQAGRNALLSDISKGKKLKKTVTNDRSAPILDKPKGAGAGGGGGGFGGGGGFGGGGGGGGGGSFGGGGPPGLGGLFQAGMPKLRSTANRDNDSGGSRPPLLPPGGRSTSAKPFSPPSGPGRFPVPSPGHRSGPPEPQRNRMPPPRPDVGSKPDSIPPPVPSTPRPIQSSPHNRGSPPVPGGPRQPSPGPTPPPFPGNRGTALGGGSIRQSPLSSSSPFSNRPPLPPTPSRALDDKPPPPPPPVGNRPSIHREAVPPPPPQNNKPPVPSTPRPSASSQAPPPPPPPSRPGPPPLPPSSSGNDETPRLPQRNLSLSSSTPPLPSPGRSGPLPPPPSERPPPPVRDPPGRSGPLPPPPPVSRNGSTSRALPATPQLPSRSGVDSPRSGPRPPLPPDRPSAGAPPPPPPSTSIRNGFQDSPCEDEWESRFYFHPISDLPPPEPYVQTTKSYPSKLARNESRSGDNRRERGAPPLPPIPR
UniProt P42768: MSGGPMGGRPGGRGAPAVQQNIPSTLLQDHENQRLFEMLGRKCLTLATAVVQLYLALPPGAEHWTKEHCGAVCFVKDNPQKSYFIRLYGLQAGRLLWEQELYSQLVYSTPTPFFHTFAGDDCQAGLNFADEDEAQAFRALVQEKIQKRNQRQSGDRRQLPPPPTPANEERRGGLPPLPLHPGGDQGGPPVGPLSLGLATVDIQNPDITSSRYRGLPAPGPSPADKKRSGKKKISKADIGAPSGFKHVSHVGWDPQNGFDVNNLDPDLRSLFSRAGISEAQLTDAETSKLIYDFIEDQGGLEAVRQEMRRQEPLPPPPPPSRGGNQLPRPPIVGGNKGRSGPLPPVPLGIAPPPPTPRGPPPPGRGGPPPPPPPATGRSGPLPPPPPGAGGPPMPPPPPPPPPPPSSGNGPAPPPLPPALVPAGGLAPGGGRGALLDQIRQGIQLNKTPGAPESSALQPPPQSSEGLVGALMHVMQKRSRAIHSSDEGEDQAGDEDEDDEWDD

Some targets named below: WIP(Y455F)–EGFP (human) (UniProt O43516); WIP(Y468F)–EGFP (human) (UniProt O43516); WIP(Y468E)–EGFP (human) (UniProt O43516); WIP(WT)–EGFP^RES (human) (UniProt O43516); WIP(WT)–EGFP (human) (UniProt O43516); WIP(Y475F)–EGFP (human) (UniProt O43516); WIP(ΔWBD)–EGFP (human) (UniProt O43516).
What all share (experiment): co-IP; WIP–EGFP variants immunoprecipitated with anti-GFP antibody and Protein A/G agarose from lysates of TGFβ1-differentiated THP-1 cells (WIP-knockdown THP-1 cells for the knockdown-resistant variants); lysis buffer 150 mM NaCl, 1% Triton X-100, 50 mM Tris-HCl pH 7.5, 1 mM EDTA; washes with 500 mM NaCl; 4°C; bound endogenous WASP detected by western blot
On the technique in general: Immunoblotting shows a protein as a band on a membrane.

For assay [1], the target named is WIP(Y455F/Y468F/Y475F)–EGFP (human) (UniProt O43516).
Assay [2] has as its target WIP–EGFP, unphosphorylatable variant of S488 (serine to alanine) (human) (UniProt O43516).
The target in assay [3] is WIP(Y455/468/475F)–EGFP^RES (human) (UniProt O43516).
For assay [4], the target named is WIP(Y455E/Y468E/Y475E)–EGFP (human) (UniProt O43516).
Assay [5] deals with WIP–EGFP, phosphomimetic variant of S488 (serine to aspartic acid) (human) (UniProt O43516).

These are yes or no findings as the source states them, for the method shown. In cells and extracts the contact can be indirect. Some entries that bind do so weakly or less than the wild type.

Regarding “Wiskott–Aldrich syndrome protein (WASP) (from UniProt P42768 1-502)”, the binding entry in assay [1] was “binds”; in [2], “binds”; with WIP(Y455F)–EGFP (human), “binds”; with WIP(Y468F)–EGFP (human) it was “binds”; in the assay with WIP(Y468E)–EGFP (human), “binds weakly”; with WIP(WT)–EGFP^RES (human), “binds”. For the same substance, the binding entry with WIP(WT)–EGFP (human) was “binds”; with WIP(Y475F)–EGFP (human), “binds”; in assay [3] it was “binds”; in assay [4], “no binding”; in assay [5], “binds”; with WIP(ΔWBD)–EGFP (human), “no binding”.
